# The other results are listed elsewhere or left out.
# B1: LecRKVI.2 (protein)
# chain: RTTTNFAFRGFNGNQSKIRIEGAAMIKPDGLLRLTDRKSNVTGTAFYHKPVRLLNRNSTNVTIRSFSTSFVFVIIPSSSSNKGFGFTFTLSPTPYRLNAGSAQYLGVFNKENNGDPRNHVFAVEFDTVQGSRDDNTDRIGNDIGLNYNSRTSDLQEPVVYYNNDDHNKKEDFQLESGNPIQALLEYDGATQMLNVTVYPARLGFKPTKPLISQHVPKLLEIVQEEMYVGFTASTGKGQSSAHYVMGWSFSSGGERPIADVLILSELPPPPPNKAKKEGLNS
# How the values were obtained:
# Assay in all cases: glycan array binding signal (z-score within array); higher = stronger binding
# Settings in all cases: glycan notation: IUPAC condensed, linker removed
# [1] = target: Neu5Ac(a2-3)Gal(b1-3)GlcNAc6S
# Method in brief: (§1)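 The binding signal is a Z-score computed within each array. Data were drawn from 3228 arrays in the Consortium for Functional Glycomics database, restricted to those with a known protein sequence. Scores were averaged over arrays of the same protein sequence at different concentrations or buffers, and over linkers, and negative values can be taken as non-binding.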
# [2] = target: Neu5Ac(a2-3)Gal(b1-3)[Fuc(a1-4)]GlcNAc
# Method in brief: as §1
# [3] = target: Neu5Ac(a2-3)Gal(b1-3)[Fuc(a1-4)]GlcNAc(b1-3)Gal(b1-3)[Fuc(a1-4)]GlcNAc
# Method in brief: as §1
# [4] = target: Neu5Ac(a2-3)Gal(b1-3)[Fuc(a1-4)]GlcNAc(b1-3)Gal(b1-4)[Fuc(a1-3)]GlcNAc
# Method in brief: as §1
# [5] = target: Neu5Ac(a2-3)Gal(b1-3)[GlcNAc(b1-6)]GalNAc
# Method in brief: as §1
# [6] = target: Neu5Ac(a2-3)Gal(b1-3)[Neu5Ac(a2-6)]GalNAc
# Method in brief: as §1
# [7] = target: Neu5Ac(a2-3)Gal(b1-3)[Neu5Ac(a2-6)]GlcNAc(b1-3)[Fuc(a1-3)[Gal(b1-4)]GlcNAc(b1-6)]Gal(b1-4)Glc
# Method in brief: as §1
# [8] = target: Neu5Ac(a2-3)Gal(b1-3)]Neu5Ac(a2-3)Gal(b1-4)]GlcNAc
# Method in brief: as §1
# Neu5Ac(a2-3)Gal(b1-4)Glc = target: Neu5Ac(a2-3)Gal(b1-4)Glc
# Method in brief: as §1
# [9] = target: Neu5Ac(a2-3)Gal(b1-4)GlcNAc
# Method in brief: as §1
# [10] = target: Neu5Ac(a2-3)Gal(b1-4)GlcNAc(b1-2)Man
# Method in brief: as §1
# [11] = target: Neu5Ac(a2-3)Gal(b1-4)GlcNAc(b1-2)Man(a1-3)[GlcNAc(b1-4)][Neu5Ac(a2-3)Gal(b1-4)GlcNAc(b1-2)Man(a1-6)]Man(b1-4)GlcNAc(b1-4)GlcNAc
# Method in brief: as §1
# [12] = target: Neu5Ac(a2-3)Gal(b1-4)GlcNAc(b1-2)Man(a1-3)[Neu5Ac(a2-3)Gal(b1-4)GlcNAc(b1-2)Man(a1-6)]Man(b1-4)GlcNAc(b1-4)GlcNAc
# Method in brief: as §1
# [13] = target: Neu5Ac(a2-3)Gal(b1-4)GlcNAc(b1-2)Man(a1-3)[Neu5Ac(a2-3)Gal(b1-4)GlcNAc(b1-2)Man(a1-6)]Man(b1-4)GlcNAc(b1-4)[Fuc(a1-6)]GlcNAc
# Method in brief: as §1
# [14] = target: Neu5Ac(a2-3)Gal(b1-4)GlcNAc(b1-2)Man(a1-3)[Neu5Ac(a2-6)Gal(b1-4)GlcNAc(b1-2)Man(a1-6)]Man(b1-4)GlcNAc(b1-4)GlcNAc
# Method in brief: as §1
# [15] = target: Neu5Ac(a2-3)Gal(b1-4)GlcNAc(b1-2)[Neu5Ac(a2-3)Gal(b1-4)GlcNAc(b1-4)]Man(a1-3)[GlcNAc(b1-4)][Neu5Ac(a2-3)Gal(b1-4)GlcNAc(b1-2)[Neu5Ac(a2-3)Gal(b1-4)GlcNAc(b1-6)]Man(a1-6)]Man(b1-4)GlcNAc(b1-4)GlcNAc
# Method in brief: as §1
# [16] = target: Neu5Ac(a2-3)Gal(b1-4)GlcNAc(b1-2)[Neu5Ac(a2-3)Gal(b1-4)GlcNAc(b1-4)]Man(a1-3)[GlcNAc(b1-4)][Neu5Ac(a2-3)Gal(b1-4)GlcNAc(b1-4)Man(a1-6)]Man(b1-4)GlcNAc(b1-4)GlcNAc
# Method in brief: as §1
# [17] = target: Neu5Ac(a2-3)Gal(b1-4)GlcNAc(b1-2)[Neu5Ac(a2-3)Gal(b1-4)GlcNAc(b1-6)]Man(a1-6)[Neu5Ac(a2-3)Gal(b1-4)GlcNAc(b1-2)Man(a1-3)][GlcNAc(b1-4)]Man(b1-4)GlcNAc(b1-4)GlcNAc
# Method in brief: as §1
# [18] = target: Neu5Ac(a2-3)Gal(b1-4)GlcNAc(b1-3)Gal
# Method in brief: as §1
# [19] = target: Neu5Ac(a2-3)Gal(b1-4)GlcNAc(b1-3)Gal(b1-3)GlcNAc
# Method in brief: as §1
# [20] = target: Neu5Ac(a2-3)Gal(b1-4)GlcNAc(b1-3)Gal(b1-4)GlcNAc
# Method in brief: as §1
# [21] = target: Neu5Ac(a2-3)Gal(b1-4)GlcNAc(b1-3)Gal(b1-4)GlcNAc(b1-2)Man(a1-3)[Neu5Ac(a2-3)Gal(b1-4)GlcNAc(b1-3)Gal(b1-4)GlcNAc(b1-2)Man(a1-6)]Man(b1-4)GlcNAc(b1-4)GlcNAc
# Method in brief: as §1
# [22] = target: Neu5Ac(a2-3)Gal(b1-4)GlcNAc(b1-3)Gal(b1-4)GlcNAc(b1-3)Gal(b1-4)GlcNAc
# Method in brief: as §1
# [23] = target: Neu5Ac(a2-3)Gal(b1-4)GlcNAc(b1-3)Gal(b1-4)GlcNAc(b1-3)Gal(b1-4)GlcNAc(b1-2)Man(a1-3)[Neu5Ac(a2-3)Gal(b1-4)GlcNAc(b1-3)Gal(b1-4)GlcNAc(b1-3)Gal(b1-4)GlcNAc(b1-2)Man(a1-6)]GalNAc
# Method in brief: as §1
# [24] = target: Neu5Ac(a2-3)Gal(b1-4)GlcNAc(b1-3)Gal(b1-4)GlcNAc(b1-3)GalNAc
# Method in brief: as §1
# [25] = target: Neu5Ac(a2-3)Gal(b1-4)GlcNAc(b1-3)Gal(b1-4)GlcNAc(b1-3)[Neu5Ac(a2-3)Gal(b1-4)GlcNAc(b1-3)Gal(b1-4)GlcNAc(b1-6)]GalNAc
# Method in brief: as §1
# [26] = target: Neu5Ac(a2-3)Gal(b1-4)GlcNAc(b1-3)Gal(b1-4)GlcNAc(b1-6)[Gal(b1-3)]GalNAc
# Method in brief: as §1
# [27] = target: Neu5Ac(a2-3)Gal(b1-4)GlcNAc(b1-3)Gal(b1-4)[Fuc(a1-3)]GlcNAc
# Method in brief: as §1
# [28] = target: Neu5Ac(a2-3)Gal(b1-4)GlcNAc(b1-3)GalNAc
# Method in brief: as §1
# [29] = target: Neu5Ac(a2-3)Gal(b1-4)GlcNAc(b1-3)[Neu5Ac(a2-3)Gal(b1-4)GlcNAc(b1-6)]GalNAc
# Method in brief: as §1
binder,measurement,setting,value
B1,glycan array binding signal (z-score),[1],-0.11
same,glycan array binding signal (z-score),[2],-0.318
same,glycan array binding signal (z-score),[3],-0.341
same,glycan array binding signal (z-score),[4],-0.388
same,glycan array binding signal (z-score),[5],-0.402
same,glycan array binding signal (z-score),[6],-0.325
same,glycan array binding signal (z-score),[7],-0.05
same,glycan array binding signal (z-score),[8],-0.434
same,glycan array binding signal (z-score),Neu5Ac(a2-3)Gal(b1-4)Glc,1.51
same,glycan array binding signal (z-score),[9],-0.302
same,glycan array binding signal (z-score),[10],-0.25
same,glycan array binding signal (z-score),[11],-0.302
same,glycan array binding signal (z-score),[12],-0.323
same,glycan array binding signal (z-score),[13],-0.283
same,glycan array binding signal (z-score),[14],-0.129
same,glycan array binding signal (z-score),[15],-0.364
same,glycan array binding signal (z-score),[16],-0.333
same,glycan array binding signal (z-score),[17],-0.352
same,glycan array binding signal (z-score),[18],-0.323
same,glycan array binding signal (z-score),[19],-0.465
same,glycan array binding signal (z-score),[20],-0.162
same,glycan array binding signal (z-score),[21],-0.177
same,glycan array binding signal (z-score),[22],-0.204
same,glycan array binding signal (z-score),[23],0.958
same,glycan array binding signal (z-score),[24],-0.271
same,glycan array binding signal (z-score),[25],-0.261
same,glycan array binding signal (z-score),[26],-0.37
same,glycan array binding signal (z-score),[27],-0.362
same,glycan array binding signal (z-score),[28],-0.282
same,glycan array binding signal (z-score),[29],-0.323
